What is called Ki is a dissociation constant, usually derived from enzyme kinetics or from competition with a known ligand. A lower Ki goes with a stronger hold on the target.

This assay has as its target BRD4 (BDII_E352-M457) (Homo sapiens, UniProt O60885). Kind of assay: TR-FRET bromodomain binding assay, BRD4 BDII. (In general: In TR-FRET formats the signal depends on donor and acceptor labels being close together.)

Regarding `Cc1cc(F)cc(C)c1Oc1ccc(C(C)(C)O)cc1-c1cn(C)c(=O)cc1O[C@H]1CC[C@H](N2C(=O)[C@H](C)N(C)C2=O)CC1` [Example 83, (5S)-3-[trans-4-({5-[2-(4-fluoro-2,6-dimethylphenoxy)-5-(2-hydroxypropan-2-yl)phenyl]-1-methyl-2-oxo-1,2-dihydropyridin-4-yl}oxy)cyclohexyl]-1,5-dimethylimidazolidine-2,4-dione], the Ki stood at 2.97 nM.

In turn, `Cc1cc(F)cc(C)c1Oc1ccc(C(C)(C)O)cc1-c1cn(C)c(=O)cc1O[C@H]1CC[C@H](NC(=O)C2CC2)CC1` [Example 50, N-[trans-4-({5-[2-(4-fluoro-2,6-dimethylphenoxy)-5-(2-hydroxypropan-2-yl)phenyl]-1-methyl-2-oxo-1,2-dihydropyridin-4-yl}oxy)cyclohexyl]cyclopropanecarboxamide] gave an inhibitory constant (Ki) of 3.01 nM.

In the case of `CC(=O)NC1(C)CCC(Oc2cc(=O)n(C)cc2-c2cc(C(C)(C)O)ccc2Oc2c(C)cc(F)cc2C)CC1` (stereo not drawn) [Example 32, N-[trans-4-({5-[2-(4-fluoro-2,6-dimethylphenoxy)-5-(2-hydroxypropan-2-yl)phenyl]-1-methyl-2-oxo-1,2-dihydropyridin-4-yl}oxy)-1-methylcyclohexyl]acetamide], affinity was put at a Ki of 34 nM.

Regarding `Cc1cc(F)cc(C)c1Oc1ccc(C(C)(C)O)cc1-c1cn(C)c(=O)cc1O[C@H]1CC[C@@H](C(=O)N2CCCC2)CC1` [Example 77, 5-[2-(4-fluoro-2,6-dimethylphenoxy)-5-(2-hydroxypropan-2-yl)phenyl]-1-methyl-4-{[cis-4-(pyrrolidine-1-carbonyl)cyclohexyl]oxy}pyridin-2(1H)-one], the Ki is 407 nM.

`Cc1cc(F)cc(C)c1Oc1ccc(C(C)(C)O)cc1-c1cn(C)c(=O)cc1O[C@H]1CC[C@H](N2CCCC2=O)CC1` [Example 24, 5-[2-(4-fluoro-2,6-dimethylphenoxy)-5-(2-hydroxypropan-2-yl)phenyl]-1-methyl-4-{[trans-4-(2-oxopyrrolidin-1-yl)cyclohexyl]oxy}pyridin-2(1H)-one] gave a Ki of 1.37 nM.

On to `COC(=O)N[C@H]1CC[C@H](Oc2cc(=O)n(C)cc2-c2cc(C(C)(C)O)cnc2Oc2c(C)cc(F)cc2C)CC1` [Example 5, methyl (trans-4-{[2′-(4-fluoro-2,6-dimethylphenoxy)-5′-(2-hydroxypropan-2-yl)-1-methyl-6-oxo[1,6-dihydro[3,3′-bipyridine]]-4-yl]oxy}cyclohexyl)carbamate], for which the Ki was 7.98 nM.

In turn, `CCc1c(-c2cc(C(C)(C)O)ccc2Oc2c(C)cc(F)cc2C)c(O[C@H]2CC[C@H](N3CCCC3=O)CC2)cc(=O)n1C` [Example 33, 6-ethyl-5-[2-(4-fluoro-2,6-dimethylphenoxy)-5-(2-hydroxypropan-2-yl)phenyl]-1-methyl-4-{[trans-4-(2-oxopyrrolidin-1-yl)cyclohexyl]oxy}pyridin-2(1H)-one] gave a Ki of 376 nM. This Ki is about 47-fold higher than that of the compound before.

As to `Cc1cccc(C)c1Oc1ccc(C(C)(C)O)cc1-c1cn(C)c(=O)cc1O[C@H]1CC[C@H](N2CCCC2=O)CC1` [Example 27, 5-[2-(2,6-dimethylphenoxy)-5-(2-hydroxypropan-2-yl)phenyl]-1-methyl-4-{[trans-4-(2-oxopyrrolidin-1-yl)cyclohexyl]oxy}pyridin-2(1H)-one], the Ki came to 0.834 nM.

Take `CC=C1NC(=O)N([C@H]2CC[C@H](Oc3cc(=O)n(C)cc3-c3cc(C(C)(C)O)ccc3Oc3c(C)cc(F)cc3C)CC2)C1=O` [Example 133, 5-ethylidene-3-[trans-4-({5-[2-(4-fluoro-2,6-dimethylphenoxy)-5-(2-hydroxypropan-2-yl)phenyl]-1-methyl-2-oxo-1,2-dihydropyridin-4-yl}oxy)cyclohexyl]imidazolidine-2,4-dione]: the inhibition constant Ki worked out at 2.74 nM. This Ki lies about 3.3-fold higher than the previous one.

Compound `Cc1cc(F)cc(C)c1Oc1ccc(C(C)(C)O)cc1-c1cn(C)c(=O)cc1O[C@H]1CC[C@H](C(C)(C)O)CC1` [Example 67, 5-[2-(4-fluoro-2,6-dimethylphenoxy)-5-(2-hydroxypropan-2-yl)phenyl]-4-{[trans-4-(2-hydroxypropan-2-yl)cyclohexyl]oxy}-1-methylpyridin-2(1H)-one] registered a Ki of 2.04 nM.

For `Cc1cccc(C)c1Oc1ccc(C(C)(C)O)cc1-c1cn(C)c(=O)cc1NC1CCN(C(=O)OC(C)(C)C)C1` (stereo not drawn) [Example 11, tert-butyl 3-({5-[2-(2,6-dimethylphenoxy)-5-(2-hydroxypropan-2-yl)phenyl]-1-methyl-2-oxo-1,2-dihydropyridin-4-yl}amino)pyrrolidine-1-carboxylate], the affinity, expressed as Ki, was 4.44 nM.

Turning to `CC(=O)NN[C@H]1CC[C@@H](Oc2cc(=O)n(C)cc2-c2cc(C(C)(C)O)ccc2Oc2c(C)cc(F)cc2C)CC1` [Example 99, N′-[cis-4-({5-[2-(4-fluoro-2,6-dimethylphenoxy)-5-(2-hydroxypropan-2-yl)phenyl]-1-methyl-2-oxo-1,2-dihydropyridin-4-yl}oxy)cyclohexyl]acetohydrazide], the inhibitory constant (Ki) amounted to 326 nM.

`Cc1cc(F)cc(C)c1Oc1ccc(C(C)(C)O)cc1-c1cn(C)c(=O)cc1O[C@H]1CC[C@H](N2C(=O)N[C@H](C(C)C)C2=O)CC1` [Example 131, (5R)-3-[trans-4-({5-[2-(4-fluoro-2,6-dimethylphenoxy)-5-(2-hydroxypropan-2-yl)phenyl]-1-methyl-2-oxo-1,2-dihydropyridin-4-yl}oxy)cyclohexyl]-5-(propan-2-yl)imidazolidine-2,4-dione] registered a Ki of 3.82 nM.

The compound `CC(=O)N1CCC(Nc2cc(=O)n(C)cc2-c2cc(C(C)(C)O)ccc2Oc2c(C)cccc2C)C1` (stereo not drawn) [Example 14, 4-[(1-acetylpyrrolidin-3-yl)amino]-5-[2-(2,6-dimethylphenoxy)-5-(2-hydroxypropan-2-yl)phenyl]-1-methylpyridin-2(1H)-one] yielded a Ki of 91.9 nM. This Ki is about 24-fold higher than that of the compound before.

Compound `Cc1cc(F)cc(C)c1Oc1ccc(C(C)(C)O)cc1-c1cn(C)c(=O)cc1O[C@H]1CC[C@H](N2CCCNC2=O)CC1` [Example 31, 1-[trans-4-({5-[2-(4-fluoro-2,6-dimethylphenoxy)-5-(2-hydroxypropan-2-yl)phenyl]-1-methyl-2-oxo-1,2-dihydropyridin-4-yl}oxy)cyclohexyl]tetrahydropyrimidin-2(1H)-one] returned a Ki of 1.39 nM.

`CC(=O)N[C@H]1CC[C@H](Oc2cc(=O)n(C)cc2-c2cc(C(C)(C)O)ccc2Oc2c(C)cc(F)cc2C)CC1` [Example 3, N-[trans-4-({5-[2-(4-fluoro-2,6-dimethylphenoxy)-5-(2-hydroxypropan-2-yl)phenyl]-1-methyl-2-oxo-1,2-dihydropyridin-4-yl}oxy)cyclohexyl]acetamide]: the Ki came to 2.11 nM.

Regarding `Cc1cc(F)cc(C)c1Oc1ccc(C(C)(C)O)cc1-c1cn(C)c(=O)cc1O[C@H]1CC[C@H](C(=O)O)CC1` [Example 61, trans-4-({5-[2-(4-fluoro-2,6-dimethylphenoxy)-5-(2-hydroxypropan-2-yl)phenyl]-1-methyl-2-oxo-1,2-dihydropyridin-4-yl}oxy)cyclohexane-1-carboxylic acid], the Ki worked out at 24.7 nM.

Turning to `CC(=O)NC1CC2(C1)CC(Nc1cc(=O)n(C)cc1-c1cc(C(C)(C)O)ccc1Oc1c(C)cccc1C)C2` (stereo not drawn) [Example 10, N-[6-({5-[2-(2,6-dimethylphenoxy)-5-(2-hydroxypropan-2-yl)phenyl]-1-methyl-2-oxo-1,2-dihydropyridin-4-yl}amino)spiro[3.3]heptan-2-yl]acetamide], the affinity corresponds to a Ki of 5.7 nM.

In turn, `Cc1cc(F)cc(C)c1Oc1ccc(C(C)(C)O)cc1-c1cn(C)c(=O)cc1O[C@H]1CC[C@H](N2C(=O)CC(C)(C)C2=O)CC1` [Example 90, 1-[trans-4-({5-[2-(4-fluoro-2,6-dimethylphenoxy)-5-(2-hydroxypropan-2-yl)phenyl]-1-methyl-2-oxo-1,2-dihydropyridin-4-yl}oxy)cyclohexyl]-3,3-dimethylpyrrolidine-2,5-dione] had a Ki of 4.64 nM.

`Cc1cc(F)cc(C)c1Oc1ccc(C(C)(C)O)cc1-c1cn(C)c(=O)cc1O[C@H]1CC[C@H](NC(=O)C23CC(C2)C3)CC1` (relative stereo) [Example 86, N-[trans-4-({5-[2-(4-fluoro-2,6-dimethylphenoxy)-5-(2-hydroxypropan-2-yl)phenyl]-1-methyl-2-oxo-1,2-dihydropyridin-4-yl}oxy)cyclohexyl]bicyclo[1.1.1]pentane-1-carboxamide] had a Ki of 1.93 nM. Against the preceding compound, the Ki is about 2.4-fold lower.

Turning to `Cc1cc(F)cc(C)c1Oc1ccc(C(C)(C)O)cc1-c1cn(C)c(=O)cc1O[C@H]1CC[C@H](N2C(=O)[C@@H](C)N(C)C2=O)CC1` [Example 81, (5R)-3-[trans-4-({5-[2-(4-fluoro-2,6-dimethylphenoxy)-5-(2-hydroxypropan-2-yl)phenyl]-1-methyl-2-oxo-1,2-dihydropyridin-4-yl}oxy)cyclohexyl]-1,5-dimethylimidazolidine-2,4-dione], the Ki amounted to 2.19 nM. This Ki and that of the compound before are within 1.5-fold of each other.

As to `Cc1cc(F)cc(C)c1Oc1ccc(C(C)(C)O)cc1-c1cn(C)c(=O)cc1O[C@H]1CC[C@H](N(C)C(=O)C2(C)CC2)CC1` [Example 58, N-[trans-4-({5-[2-(4-fluoro-2,6-dimethylphenoxy)-5-(2-hydroxypropan-2-yl)phenyl]-1-methyl-2-oxo-1,2-dihydropyridin-4-yl}oxy)cyclohexyl]-N,1-dimethylcyclopropane-1-carboxamide], the Ki came to 2.89 nM. The Ki values of the last two compounds are within 1.5-fold of each other.

In turn, `Cc1cc(F)cc(C)c1Oc1ccc(C(C)(C)O)cc1-c1cn(C)c(=O)cc1O[C@H]1CC[C@H](NC(=O)N2CCOCC2)CC1` [Example 122, N-[trans-4-({5-[2-(4-fluoro-2,6-dimethylphenoxy)-5-(2-hydroxypropan-2-yl)phenyl]-1-methyl-2-oxo-1,2-dihydropyridin-4-yl}oxy)cyclohexyl]morpholine-4-carboxamide] yielded a Ki of 13.1 nM.

In turn, `Cc1cc(F)cc(C)c1Oc1ccc(C(C)(C)O)cc1-c1cn(C)c(=O)cc1O[C@H]1CC[C@H](NC(=O)C23CC(N)(C2)C3)CC1` (relative stereo) [Example 93, 3-amino-N-[trans-4-({5-[2-(4-fluoro-2,6-dimethylphenoxy)-5-(2-hydroxypropan-2-yl)phenyl]-1-methyl-2-oxo-1,2-dihydropyridin-4-yl}oxy)cyclohexyl]bicyclo[1.1.1]pentane-1-carboxamide] displayed a Ki of 1.94 nM.
